Test results reported in the supplement of paper PMC8728848.
The other results are listed elsewhere or left out.

Assays:
Assay in all cases: glycan array binding signal (z-score within array); higher = stronger binding
Conditions in all cases: glycan notation: IUPAC condensed, linker removed
[1] = target: Gal(b1-3)GlcNAc(a1-3)Gal(b1-4)GlcNAc
In short: (§1)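 The binding signal is a Z-score computed within each array. Data were drawn from 3228 arrays in the Consortium for Functional Glycomics database, restricted to those with a known protein sequence. Scores were averaged over arrays of the same protein sequence at different concentrations or buffers, and over linkers, and negative values can be taken as non-binding.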

[2] = target: Gal(b1-3)GlcNAc(a1-6)Gal(b1-4)GlcNAc
In short: as §1

Gal(b1-3)GlcNAc(b1-2)Man = target: Gal(b1-3)GlcNAc(b1-2)Man
In short: as §1

[3] = target: Gal(b1-3)GlcNAc(b1-2)Man(a1-3)[Gal(b1-3)GlcNAc(b1-2)Man(a1-6)]Man(b1-4)GlcNAc(b1-4)GlcNAc
In short: as §1

[4] = target: Gal(b1-3)GlcNAc(b1-2)Man(a1-3)[Gal(b1-3)GlcNAc(b1-2)Man(a1-6)]Man(b1-4)GlcNAc(b1-4)[Fuc(a1-6)]GlcNAc
In short: as §1

[5] = target: Gal(b1-3)GlcNAc(b1-2)Man(a1-3)[GlcNAc(b1-4)][Gal(b1-3)GlcNAc(b1-2)Man(a1-6)]Man(b1-4)GlcNAc(b1-4)GlcNAc
In short: as §1

[6] = target: Gal(b1-3)GlcNAc(b1-2)[Gal(b1-3)GlcNAc(b1-6)]Man(a1-6)[Gal(b1-3)GlcNAc(b1-2)Man(a1-3)]Man(b1-4)GlcNAc(b1-4)GlcNAc
In short: as §1

[7] = target: Gal(b1-3)GlcNAc(b1-3)Gal(b1-3)GlcNAc
In short: as §1

[8] = target: Gal(b1-3)GlcNAc(b1-3)Gal(b1-4)Glc
In short: as §1

[9] = target: Gal(b1-3)GlcNAc(b1-3)Gal(b1-4)GlcNAc
In short: as §1

[10] = target: Gal(b1-3)GlcNAc(b1-3)Gal(b1-4)GlcNAc(b1-2)Man(a1-3)[Gal(b1-3)GlcNAc(b1-3)Gal(b1-4)GlcNAc(b1-2)Man(a1-6)]Man(b1-4)GlcNAc(b1-4)GlcNAc
In short: as §1

[11] = target: Gal(b1-3)GlcNAc(b1-3)Gal(b1-4)GlcNAc(b1-2)[Gal(b1-3)GlcNAc(b1-3)Gal(b1-4)GlcNAc(b1-6)]Man(a1-6)[Gal(b1-3)GlcNAc(b1-3)Gal(b1-4)GlcNAc(b1-2)Man(a1-3)]Man(b1-4)GlcNAc(b1-4)[Fuc(a1-6)]GlcNAc
In short: as §1

[12] = target: Gal(b1-3)GlcNAc(b1-3)Gal(b1-4)GlcNAc(b1-3)Gal(b1-4)GlcNAc(b1-2)[Gal(b1-3)GlcNAc(b1-3)Gal(b1-4)GlcNAc(b1-3)Gal(b1-4)GlcNAc(b1-6)]Man(a1-6)[Gal(b1-3)GlcNAc(b1-3)Gal(b1-4)GlcNAc(b1-3)Gal(b1-4)GlcNAc(b1-2)Man(a1-3)]Man(b1-4)GlcNAc(b1-4)[Fuc(a1-6)]GlcNAc
In short: as §1

[13] = target: Gal(b1-3)GlcNAc(b1-3)Gal(b1-4)GlcNAc(b1-6)[Gal(b1-3)GlcNAc(b1-3)]Gal(b1-4)Glc
In short: as §1

[14] = target: Gal(b1-3)GlcNAc(b1-3)Gal(b1-4)[Fuc(a1-3)]GlcNAc
In short: as §1

[15] = target: Gal(b1-3)GlcNAc(b1-3)Gal(b1-4)[Fuc(a1-3)]GlcNAc(b1-6)[Gal(b1-3)GlcNAc(b1-3)]Gal(b1-4)Glc
In short: as §1

[16] = target: Gal(b1-3)GlcNAc(b1-3)GalNAc
In short: as §1

[17] = target: Gal(b1-3)GlcNAc(b1-6)Gal(b1-4)GlcNAc
In short: as §1

[18] = target: Gal(b1-3)GlcNAc(b1-6)GalNAc
In short: as §1

[19] = target: Gal(b1-3)GlcNAc(b1-6)[Gal(b1-3)]GalNAc
In short: as §1

Gal(b1-3)GlcNAc6S = target: Gal(b1-3)GlcNAc6S
In short: as §1

[20] = target: Gal(b1-3)[Fuc(a1-4)]GlcNAc
In short: as §1

[21] = target: Gal(b1-3)[Fuc(a1-4)]GlcNAc(b1-2)Man
In short: as §1

[22] = target: Gal(b1-3)[Fuc(a1-4)]GlcNAc(b1-2)Man(a1-3)[Gal(b1-3)[Fuc(a1-4)]GlcNAc(b1-2)Man(a1-6)]Man(b1-4)GlcNAc(b1-4)[Fuc(a1-6)]GlcNAc
In short: as §1

[23] = target: Gal(b1-3)[Fuc(a1-4)]GlcNAc(b1-3)Gal(b1-3)[Fuc(a1-4)]GlcNAc
In short: as §1

[24] = target: Gal(b1-3)[Fuc(a1-4)]GlcNAc(b1-3)Gal(b1-4)GlcNAc
In short: as §1

[25] = target: Gal(b1-3)[Fuc(a1-4)]GlcNAc(b1-3)Gal(b1-4)[Fuc(a1-3)]GlcNAc
In short: as §1

[26] = target: Gal(b1-3)[Fuc(a1-4)]GlcNAc(b1-6)GalNAc
In short: as §1

[27] = target: Gal(b1-3)[GlcNAc(b1-6)]GalNAc
In short: as §1

[28] = target: Gal(b1-3)[Neu5Ac(a2-6)]GalNAc
In short: as §1

[29] = target: Gal(b1-3)[Neu5Ac(a2-6)]GlcNAc(b1-4)Gal(b1-4)Glc
In short: as §1

[30] = target: Gal(b1-3)[Neu5Ac(a2-6)]GlcNAc(b1-6)Gal(b1-4)Glc
In short: as §1

[31] = target: Gal(b1-3)[Neu5Ac(b2-6)]GalNAc
In short: as §1

Gal(b1-4)Gal = target: Gal(b1-4)Gal
In short: as §1

[32] = target: Gal(b1-4)GalNAc(a1-3)[Fuc(a1-2)]Gal(b1-4)GlcNAc
In short: as §1

[33] = target: Gal(b1-4)GalNAc(b1-3)[Fuc(a1-2)]Gal(b1-4)GlcNAc
In short: as §1

Gal(b1-4)Glc = target: Gal(b1-4)Glc
In short: as §1

B1: CSA (Cytisus scoparius), P29257 (protein)
chain: SEELSFSFTKFKTDQKNLILQRDALITPTGKLQLTTVENGKPAAYSLGRALYSTPIHIWDKSTGDEASFATFFSFVISDAPNPSTAATDGLAFFLAPADTQPQSAGGYLGLFEKDSSYNSSNQIVAVEFDTYYNSAWDPQTNPHIGIDVNTIKSKKVSSWGFKNGNVATVLITYQPSSKSLVASLVYPSGQTSDKTSYIISANVDLKATVPEWVRIGFSATTGQTDNYIETHDILSWSFKSKLPATKN
[1]
  glycan array binding signal (z-score): -0.227
[2]
  glycan array binding signal (z-score): -0.212
Gal(b1-3)GlcNAc(b1-2)Man
  glycan array binding signal (z-score): -0.197
[3]
  glycan array binding signal (z-score): -0.02
[4]
  glycan array binding signal (z-score): -0.106
[5]
  glycan array binding signal (z-score): -0.26
[6]
  glycan array binding signal (z-score): -0.212
[7]
  glycan array binding signal (z-score): -0.001
[8]
  glycan array binding signal (z-score): -0.178
[9]
  glycan array binding signal (z-score): -0.221
[10]
  glycan array binding signal (z-score): -0.157
[11]
  glycan array binding signal (z-score): -0.108
[12]
  glycan array binding signal (z-score): -0.13
[13]
  glycan array binding signal (z-score): -0.221
[14]
  glycan array binding signal (z-score): -0.163
[15]
  glycan array binding signal (z-score): -0.169
[16]
  glycan array binding signal (z-score): -0.224
[17]
  glycan array binding signal (z-score): -0.199
[18]
  glycan array binding signal (z-score): -0.217
[19]
  glycan array binding signal (z-score): -0.199
Gal(b1-3)GlcNAc6S
  glycan array binding signal (z-score): -0.231
[20]
  glycan array binding signal (z-score): -0.076
[21]
  glycan array binding signal (z-score): -0.142
[22]
  glycan array binding signal (z-score): -0.009
[23]
  glycan array binding signal (z-score): -0.175
[24]
  glycan array binding signal (z-score): -0.171
[25]
  glycan array binding signal (z-score): -0.176
[26]
  glycan array binding signal (z-score): -0.11
[27]
  glycan array binding signal (z-score): -0.195
[28]
  glycan array binding signal (z-score): -0.169
[29]
  glycan array binding signal (z-score): -0.185
[30]
  glycan array binding signal (z-score): -0.176
[31]
  glycan array binding signal (z-score): -0.207
Gal(b1-4)Gal
  glycan array binding signal (z-score): -0.174
[32]
  glycan array binding signal (z-score): -0.213
[33]
  glycan array binding signal (z-score): -0.187
Gal(b1-4)Glc
  glycan array binding signal (z-score): -0.208
